{"source": "PubChem BioAssay AID1460", "about": "(National Center for Advancing Translational Sciences (NCATS), 2008)", "note": "Screen size: about 270,000 compounds; about 5,800 (2.1%) were called active. Inconclusive results, whose numbers are uncertain, are shown with a selection of clear calls. Calls come from the whole dose curve; as a rule, active = well fitted inhibition curve with a large enough effect; inconclusive = small, poorly fitted or top-dose-only effect; inactive = flat fitted curve, though single readings scatter. Potencies beside an inconclusive call are fits to weak or partial responses and may not hold up. % is set by controls: 0 for no effect and ±100 for the full control effect; potency is the fitted concentration of half-maximal effect; tags give direction and shape of the fitted curve."}
{"biological_target": "Microtubule-associated protein tau (Homo sapiens) (UniProt P10636)", "sequence (P10636 whole entry, looked up, the tested form may be a part)": "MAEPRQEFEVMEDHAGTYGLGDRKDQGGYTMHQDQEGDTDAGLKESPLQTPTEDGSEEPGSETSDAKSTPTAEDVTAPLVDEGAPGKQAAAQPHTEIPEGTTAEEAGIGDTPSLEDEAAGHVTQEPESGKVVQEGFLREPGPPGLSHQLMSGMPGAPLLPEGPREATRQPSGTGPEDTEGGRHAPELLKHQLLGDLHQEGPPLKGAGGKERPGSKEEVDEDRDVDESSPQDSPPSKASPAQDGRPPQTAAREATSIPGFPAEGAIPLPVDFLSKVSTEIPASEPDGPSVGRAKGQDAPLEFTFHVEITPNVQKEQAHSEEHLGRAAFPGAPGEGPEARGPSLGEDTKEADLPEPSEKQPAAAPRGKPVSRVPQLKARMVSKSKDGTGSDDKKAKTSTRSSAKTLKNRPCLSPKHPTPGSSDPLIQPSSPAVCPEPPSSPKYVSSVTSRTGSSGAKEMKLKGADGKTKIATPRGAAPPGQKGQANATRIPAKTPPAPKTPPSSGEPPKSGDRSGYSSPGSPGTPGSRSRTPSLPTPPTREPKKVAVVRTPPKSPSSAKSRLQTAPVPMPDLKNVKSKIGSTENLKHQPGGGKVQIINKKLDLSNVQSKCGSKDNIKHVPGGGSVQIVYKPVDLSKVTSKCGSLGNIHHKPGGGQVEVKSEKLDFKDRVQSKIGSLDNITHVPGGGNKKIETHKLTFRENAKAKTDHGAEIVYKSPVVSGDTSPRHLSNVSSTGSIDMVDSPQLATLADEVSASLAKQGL", "assay": "qHTS for Inhibitors of Tau Fibril Formation, Thioflavin T Binding; note: nearly all actives have a fitted effect of over 55% in size", "conditions": "recombinant tau K18 P301L (four-repeat tau fragment), heparin-induced fibrillization, ThT fluorescence; series mostly up to 57.4 µM; activity, negative = inhibition: at the top concentration", "in_short": "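K18 P301L tau (15 uM + 0.24 uM Alexa 594-tagged), heparin 20 uM, NaOAc pH 7, 6 h 37 C; ThT 30 uM, 1 h RT, ex 450/em 510 nm.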"}
{"molecule": "Cn1c(N)c(C(=O)Nc2ccc3ccccc3c2)sc1=S", "Potency": "inconclusive: 1.78 µM [inhibitor, full curve]"}
{"molecule": "O=C1OCCC1Sc1nc2cc(Cl)ccc2n1Cc1ccccc1", "note": "(stereo unspecified)", "activity, negative = inhibition": "inactive: -17.1%"}
{"molecule": "CCn1c(COc2ccc(C)cc2)nnc1SCC(=O)C(C)(C)C", "activity, negative = inhibition": "inactive: -9.77%"}
{"molecule": "Cc1ccc(-c2noc(CN(C(=O)CCN3C(=O)c4ccccc4C3=O)C(C)C)n2)cc1", "Potency": "inconclusive: 28.2 µM [inhibitor, single point]"}
{"molecule": "O=C(N/N=C/c1cc2c3c(c1O)CCCN3CCC2)c1ccccc1O", "Potency": "active: 12.6 µM"}
{"molecule": "CC(CCc1ccccc1)NC(=O)COC(=O)c1ccc(S(C)(=O)=O)c([N+](=O)[O-])c1", "note": "(stereo unspecified)", "Potency": "inconclusive: 15.8 µM [inhibitor, partial curve]"}
{"molecule": "COc1cc(CN2CCN(c3ccccc3F)CC2)cc(OC)c1O", "activity, negative = inhibition": "inactive: -17%"}
{"molecule": "COc1ccc(CN(C(=O)c2nsc(Cl)c2Cl)C(C(=O)NC2CCCCC2)c2ccc(OC)cc2)cc1", "note": "(stereo unspecified)", "activity, negative = inhibition": "inactive: -4.42%"}
{"molecule": "CCn1c(O)c(N=NC(=O)CNC(=O)/C=C/c2ccco2)c2ccccc21", "Potency": "inconclusive: 31.6 µM [inhibitor, partial curve]"}
{"molecule": "COc1cccc(/C=N/Nc2ccc(C(=O)O)cc2)c1O", "Potency": "inconclusive: 15.8 µM [inhibitor, partial curve]"}
{"molecule": "COc1ccccc1CNC(=O)Cn1cc2c(n1)CCCC2", "Potency": "inconclusive: 31.6 µM [inhibitor, single point]"}
{"molecule": "O/N=C/c1cc(Br)cc(Br)c1OCc1ccccc1", "Potency": "inconclusive: 7.08 µM [inhibitor, partial curve]"}
{"molecule": "CCN(CC)C(=O)c1csc(Nc2ccc(C)cc2)n1", "Potency": "inconclusive: 14.1 µM [inhibitor, single point]"}
{"molecule": "Cc1ccnc2nc(C(=O)Nc3nc(-c4ccccn4)cs3)nn12", "Potency": "inconclusive: 25.1 µM [inhibitor, partial curve]"}
{"molecule": "Cc1cc(C)cc(N2C(=O)CSC23C(=O)N(CC(=O)Nc2ccc(F)cc2F)c2ccccc23)c1", "note": "(stereo unspecified)", "activity, negative = inhibition": "inactive: -6.37%"}
{"molecule": "COC(=O)c1ccc(Cl)cc1NC(=O)/C=C/c1ccc(C)o1", "activity, negative = inhibition": "inactive: -15.8%"}
{"molecule": "Cc1c2ccccc2nc2c(F)c(NCCO)c(F)c(F)c12", "Potency": "active: 12.6 µM"}
{"molecule": "O=C(NC1CC1)c1cc2c(s1)-c1ccccc1OC2", "Potency": "inconclusive: 25.1 µM [inhibitor, partial curve]"}
{"molecule": "CC1C/C=C/C=C/C=C/C=C/C(O[C@@H]2O[C@H](C)[C@@H](O)[C@H](N)[C@@H]2O)CC2OC(O)(CC(O)CC3OC3/C=C/C(=O)O1)CC(O)C2C(=O)O", "note": "(stereo partly specified)", "Potency": "inconclusive: 25.1 µM [inhibitor, single point]"}
{"molecule": "COc1ccccc1N1C(=O)N(C(C)=O)C2C1Nc1ccccc1N2C", "note": "(stereo unspecified)", "Potency": "inconclusive: 20 µM [inhibitor, single point]"}
{"molecule": "Cc1cc(N/N=C/c2ccc(Cl)cc2Cl)nc(NCc2ccccc2)n1", "Potency": "inconclusive: 10 µM [inhibitor, partial curve, poor fit]"}
{"molecule": "CCc1ccc(OCc2nc(-c3ccc(OC)cc3)no2)c(Br)c1", "Potency": "inconclusive: 5.62 µM [inhibitor, partial curve]"}
{"molecule": "CCOC(=O)C1=C(O)/C(=C/c2ccc(OCC(=O)O)c(OCC)c2)SC1=Nc1ccc(OC)cc1", "Potency": "inconclusive: 17.8 µM [inhibitor, single point]"}
{"molecule": "O=C(Cn1ncc2c3ccccc3n(Cc3cccc(Cl)c3)c2c1=O)NCc1cccs1", "activity, negative = inhibition": "inactive: 0.391%"}
{"molecule": "c1ccc(CN2CCN(C3=Nc4cccc5cccc3c45)CC2)cc1", "Potency": "inconclusive: 17.8 µM [inhibitor, partial curve]"}
{"molecule": "C/C(=C\\C(=S)Nc1ccccc1)Nc1ccccc1", "Potency": "inconclusive: 31.6 µM [inhibitor, single point]"}
{"molecule": "O=C(Cn1cnc2c(oc3ccccc32)c1=O)Nc1ccc(F)cc1F", "Potency": "inconclusive: 0.891 µM [inhibitor, full curve, poor fit]"}
{"molecule": "O=C(O)c1ccccc1C(=O)N(Cc1ccccc1)Cc1ccccc1", "activity, negative = inhibition": "inactive: -17.4%"}
{"molecule": "O=[N+]([O-])c1ccc(-c2csc3[n+]2CCS3)cc1", "Potency": "inconclusive: 31.6 µM [inhibitor, partial curve]"}
{"molecule": "Cc1c(CCC(=O)NCc2cccc(Cl)c2)c(=O)oc2c(C)c(O)ccc12", "activity, negative = inhibition": "inactive: 3.65%"}
{"molecule": "O=C(Nc1ccc2c(c1)OCO2)N1CCN(c2ncccn2)CC1", "Potency": "inconclusive: 20 µM [inhibitor, partial curve]"}
{"molecule": "CCOC(=O)C1CCCCN1Cc1cc(OC)ccc1OC", "note": "(stereo unspecified)", "activity, negative = inhibition": "inactive: -8.45%"}
{"molecule": "COc1ccc(/C=N/NC(=O)c2c(C)n(C)c3ccc(OC)cc23)c(OC)c1", "Potency": "inconclusive: 28.2 µM [inhibitor, single point]"}
{"molecule": "Cc1cc(S(=O)(=O)N2CCC(N3CCCCC3)CC2)ccc1-n1cnnn1", "activity, negative = inhibition": "inactive: -2.94%"}
{"molecule": "Cc1cc(C)n2nc(N)c(N=Nc3cccc(Cl)c3)c2n1", "Potency": "inconclusive: 6.31 µM [inhibitor, partial curve]"}
{"molecule": "CCCc1ccc(-c2ccc(C(=O)Oc3ccc(OCC)cc3)cc2)nc1", "Potency": "inconclusive: 3.98 µM [inhibitor, partial curve]"}
{"molecule": "O=C(Oc1cccnc1)c1cc(S(=O)(=O)N2CCCCC2)ccc1Cl", "Potency": "inconclusive: 15.8 µM [inhibitor, partial curve]"}
{"molecule": "O=C(COc1ccc([N+](=O)[O-])cc1)Nc1ccc(N2CCCC2)cc1", "Potency": "inconclusive: 0.794 µM [inhibitor, full curve]"}
{"molecule": "CCC(=O)c1ccc(-c2ccccc2)cc1", "Potency": "inconclusive: 10 µM [inhibitor, partial curve]"}
{"molecule": "COc1ccc(Nc2cc(C)c3ccccc3n2)cc1", "Potency": "inconclusive: 20 µM [inhibitor, partial curve]"}
{"molecule": "O=C(Nc1ccc(F)cc1F)Nc1csc2ccccc12", "Potency": "inconclusive: 2.51 µM [inhibitor, full curve]"}
{"molecule": "Cc1ccc2nc(CSc3nc(C)ccc3C#N)[nH]c2c1", "Potency": "active: 11.2 µM"}
{"molecule": "CCOc1ccc(C2C(=O)N(C3CCCCCC3)CC(=O)N2CCc2ccc(OC)c(OC)c2)cc1OC", "note": "(stereo unspecified)", "activity, negative = inhibition": "inactive: 0.749%"}
{"molecule": "CCOc1ccc(CCNC(=O)c2oc3c(c2C)-c2[nH]ncc2CC3)cc1OCC", "Potency": "inconclusive: 5.01 µM [inhibitor, partial curve]"}
{"molecule": "CCC1(c2ccc(Cl)cc2)NC(=O)N(Cc2ccc(C(=O)OC)cc2)C1=O", "note": "(stereo unspecified)", "activity, negative = inhibition": "inactive: -11.6%"}
{"molecule": "CC(C)(C)c1ccc(/C=C2/SC(N3CCCC3)=NC2=O)cc1", "Potency": "inconclusive: 22.4 µM [inhibitor, partial curve]"}
{"molecule": "Cc1ccc(N2CCN(CC(O)COC3CCCCC3)CC2)cc1", "note": "(stereo unspecified)", "Potency": "inconclusive: 1.26 µM [inhibitor, partial curve, poor fit]"}
{"molecule": "COc1ccccc1N1CCN(c2ccc(-c3ccccc3)nn2)CC1", "Potency": "inconclusive: 7.94 µM [inhibitor, partial curve]"}
{"molecule": "O=C(Nc1ccc2c(c1)nc1n2CCN(C2CCCCC2)C1)c1ccco1", "Potency": "inconclusive: 35.5 µM [inhibitor, single point]"}
{"molecule": "S=C(NCCc1ccc(Cl)cc1)NCc1ccco1", "Potency": "inconclusive: 39.8 µM [inhibitor, single point]"}
{"molecule": "COc1ccc(C2=NCC(CSc3nnnn3C)S2)cc1", "note": "(stereo unspecified)", "Potency": "inconclusive: 28.2 µM [inhibitor, partial curve]"}
{"molecule": "N#C/C(=C\\c1ccccc1)C(=O)Nc1cccnc1", "Potency": "inconclusive: 44.7 µM [inhibitor, single point]"}
{"molecule": "CCOC(=O)C(C)/C(C)=N/NC(=O)c1cc2ccccc2cc1O", "note": "(stereo unspecified)", "Potency": "inconclusive: 8.91 µM [inhibitor, partial curve]"}
{"molecule": "CC(=O)c1ccc(NC(=O)c2ccc(-c3ccc(Cl)cc3)o2)cc1", "Potency": "inconclusive: 0.708 µM [inhibitor, full curve]"}
{"molecule": "COc1ccccc1NC(=O)C1CCN(C(=O)c2sc3nc[nH]c(=O)c3c2C)CC1", "activity, negative = inhibition": "inactive: 8.75%"}
{"molecule": "CC(=O)c1ccc(NC(=O)c2ccc(COc3ccccc3[N+](=O)[O-])o2)cc1", "Potency": "inconclusive: 2.82 µM [inhibitor, full curve, poor fit]"}
{"molecule": "CN=Cc1nc(-c2ccccc2)oc1O", "activity, negative = inhibition": "inactive: -11.7%"}
{"molecule": "COc1ccc(Oc2ccc(/C=C/C(=O)c3cccc(OC)c3)cc2[N+](=O)[O-])cc1", "Potency": "inconclusive: 10 µM [inhibitor, partial curve]"}
{"molecule": "O=c1onc2n1-c1cc(Br)ccc1OC2", "activity, negative = inhibition": "inactive: -17%"}
{"molecule": "O=C(CCCCCNC(=O)c1ccccc1)N=Nc1c(O)[nH]c2c(Br)cc(Br)cc12", "Potency": "active: 6.31 µM"}
{"molecule": "Oc1ccc(/C=N/NC(=S)N2CCOCC2)cc1", "Potency": "inconclusive: 25.1 µM [inhibitor, single point]"}
{"molecule": "CCOC(=O)c1ccc(NC(=O)NCCOCCn2c(=O)oc3ccccc32)cc1", "Potency": "inconclusive: 8.91 µM [inhibitor, single point]"}
{"molecule": "c1ccc(-n2ncc3c(N4CCCC4)ncnc32)cc1", "Potency": "inconclusive: 12.6 µM [inhibitor, partial curve, poor fit]"}
{"molecule": "Nc1cc2c(cc1[N+](=O)[O-])OCO2", "Potency": "inconclusive: 17.8 µM [inhibitor, partial curve]"}
{"molecule": "CCn1c2ccccc2c2nnc(SCC(=O)c3c(N)n(C)c(=O)n(C)c3=O)nc21", "activity, negative = inhibition": "inactive: -10%"}
{"molecule": "Oc1ccc(N=Cc2sc3ccccc3c2Cl)cc1", "Potency": "active: 7.08 µM"}
{"molecule": "CC(=O)Nc1ccc(/C(C)=N/Nc2nc(Nc3ccccc3)nc(N3CCOCC3)n2)cc1", "Potency": "inconclusive: 7.08 µM [inhibitor, partial curve]"}
{"molecule": "Cc1c(C(=O)Nc2ccccc2F)sc2ncnc(N(C)C3CCCCC3)c12", "activity, negative = inhibition": "inactive: -14%"}
{"molecule": "COc1ccc(N2C(=O)CC(NNC(=O)c3cc(C)oc3C)C2=O)cc1", "note": "(stereo unspecified)", "activity, negative = inhibition": "inactive: -11.9%"}
{"molecule": "COc1ccc(C(=O)NC(=S)NNC(=O)c2ccc(NC(C)=O)cc2)cc1Br", "Potency": "inconclusive: 2 µM [inhibitor, full curve]"}
{"molecule": "CC(=O)/C(N=Nc1nc2c([nH]1)c(=O)n(C)c(=O)n2C)=C(\\C)O", "Potency": "inconclusive: 35.5 µM [inhibitor, partial curve]"}
